Screen size: about 52,000 compounds; about 1,700 (3.3%) were called active. Rule as the data show it: active = survival mostly below about 52% (no sharp cut-off); inactive = mostly above about 56%. This is one part of the list.
system: Wild type; assay: growth inhibition of S. aureus wild type versus tarO mutant, primary screen, teichoic acid synthesis inhibitors, RN4220, OD600 (AID 463173); conditions: S. aureus RN4220 wild type/DeltatarO growth, OD600, 18 h, stronger effect = lower value, screened at 18.75 µg/mL (by protocol)

Row | Structure (SMILES) | survival
1 | CC1=C(C(=O)Nc2ccccc2)C(c2ccccc2C)n2ncc(C(=O)Nc3ccccc3)c2N1 (stereo not given) | inactive: 136%
2 | Cc1nc2ccccc2n1CCc1nc2c3ccccc3nc(SCc3cccc(F)c3)n2n1 | inactive: 74%
3 | Cc1ccc2c(=O)c(C(=O)c3ccccc3)cn(CC(=O)Nc3ccc4c(c3)OCCO4)c2n1 | inactive: 69%
4 | CC1CCN(C(=O)CSCC(=O)O)CC1 | inactive: 101%
5 | CC(C)(C)c1ccc(C2Sc3ccccc3NC3=C2C(=O)c2ccccc23)cc1 (stereo not given) | inactive: 82%
6 | Cn1c(=O)c2sccc2n2c(CCC(=O)NCc3ccc(F)cc3)nnc12 | inactive: 83%
7 | COc1ccc(CCNC(=O)CCn2c(=O)c3ccccc3n(CC(=O)Nc3ccccc3F)c2=O)cc1OC | inactive: 87%
8 | COC(=O)c1cnn(-c2ccc(C(=O)Nc3cccc(C(C)=O)c3)cc2)c1N | inactive: 79%
9 | CCOc1ccc(NC(=O)CC2C(=O)N(c3ccccc3)C(=O)N2CCc2ccc(OC)cc2)cc1 (stereo not given) | inactive: 72%
10 | Cc1cc2cccc(C)c2nc1SCC(=O)O | inactive: 104%
11 | COc1ccc(Cn2c(C(=O)O)c(CNCc3cccc(OC)c3)c3ccc(C)cc32)cc1 | inactive: 76%
12 | CCCCN(CC)CCNC(=O)Cn1cnc2sc(C)c(S(=O)(=O)N3CCC(C)CC3)c2c1=O | inactive: 75%
13 | CC1(C)C=C2C(=NN(c3ccccc3)C(N)=C2C#N)CO1 | inactive: 110%
14 | O=C1CN(C(=O)Cc2ccc(F)cc2)C(c2ccccc2)c2cc(Br)ccc2N1 (stereo not given) | inactive: 86%
15 | Cn1c(=O)oc2cc(S(=O)(=O)N3CCC(C(=O)NCc4ccccc4Cl)CC3)ccc21 | inactive: 133%
16 | Cc1ccc(NC(=O)Cn2nc(C)c3nn(-c4ccc(Cl)cc4)c(C)c3c2=O)cc1C | inactive: 78%
17 | CC(=O)c1ccc(N2CCN(S(=O)(=O)c3c(C)nc4sc(C)cn4c3=O)CC2)cc1 | inactive: 92%
18 | Cc1cccc(N2CCN(C(=O)C3CCC(CNS(=O)(=O)c4ccc(Br)s4)CC3)CC2)c1C (stereo not given) | inactive: 77%
19 | CCc1nn(CC(=O)N2CCN(c3cccc(C)c3C)CC2)c(=O)c2cc3occc3n12 | inactive: 87%
20 | COc1ccc(N2C(=O)CSC23C(=O)N(CC(=O)NC2CCCCC2)c2ccccc23)cc1 (stereo not given) | inactive: 89%
21 | Cc1cccc(OCc2cc(=O)n3c(-c4ccccc4)csc3n2)c1C | inactive: 92%
22 | CCOC(=O)c1[nH]c(C)c(CCC(=O)Nc2c(C)cc(C)cc2C)c1C | inactive: 127%
23 | CCCn1c(SCc2nc(-c3ccccc3C)no2)nnc1-c1ccc(Cl)cc1 | inactive: 78%
24 | Cn1c(CN2CCCCC2)nc2cc(NC(=O)c3cccc(Br)c3)ccc21 | inactive: 92%
25 | NC(=O)CSc1oc(-c2ccco2)nc1S(=O)(=O)c1ccc(Br)cc1 | inactive: 91%
26 | CCCCn1cc(S(=O)(=O)c2ccc(C)c(C)c2)c(=O)c2cc(F)c(N3CCN(C)CC3)cc21 | inactive: 70%
27 | CCOC(=O)N1CCN(C(=O)Cc2cccs2)CC1 | inactive: 114%
28 | CCc1nn(CC(=O)NC(C)CCc2ccccc2)c(=O)c2cc3cc(F)ccc3n12 (stereo not given) | inactive: 78%

Row | Structure (SMILES) | survival
29 | CCc1nnc(NC(=O)c2nc(S(=O)(=O)Cc3cccc(C)c3)ncc2Cl)s1 | inactive: 55%
30 | CCC(C(=O)Nc1ccccc1C(=O)OC)n1c(C)c2cnn(-c3ccccc3)c(=O)c2c1C (stereo not given) | inactive: 85%
31 | CCC(Oc1ccccc1)C(=O)Nc1ccc(O)c(-c2nc3cc(C)ccc3o2)c1 (stereo not given) | inactive: 78%
32 | O=C(CN1C(=O)CCSc2ccc(S(=O)(=O)N3CCCC3)cc21)Nc1ccccc1 | inactive: 82%
33 | CCn1cc(C(=O)NCCCOC(C)C)c(=O)c2cc(S(=O)(=O)N3CCc4ccccc4C3)ccc21 | inactive: 128%
34 | Cc1cc(S(=O)(=O)N2CCCC2)ccc1-n1cnnn1 | inactive: 111%
35 | O=C(Cn1cc(S(=O)(=O)Cc2ccccc2Cl)c2ccccc21)NCc1ccccc1Cl | inactive: 95%
36 | COc1ccc(NC(=O)Cn2c(=O)n(CCCC(=O)NCc3ccccc3OC)c(=O)c3ccccc32)cc1Cl | inactive: 136%
37 | COc1cccc(NC(=O)CCS(=O)(=O)c2ccc3c(c2)oc(=O)n3C)c1 | inactive: 72%
38 | Cn1c(NCCCCO)nc2c1c(=O)n(Cc1ccc(Cl)cc1)c(=O)n2C | inactive: 78%
39 | Cc1ccc(C)c(Cn2c(C(C)NC(=O)c3ccc(F)cc3)nc3ccccc32)c1 (stereo not given) | inactive: 83%
40 | CCN(c1ccccc1)S(=O)(=O)c1cc(-c2onc(C)c2C)ccc1OC | inactive: 63%
41 | CCOc1ccccc1NC(=O)CCS(=O)(=O)c1cccc2nsnc12 | inactive: 103%
42 | Cc1c2cnn(CC(=O)N3CCN(c4ccccc4)CC3)c(=O)c2c(C)n1Cc1ccc(F)cc1 | inactive: 85%
43 | Cc1cccc(N2CCN(C(=O)C3CCCN(S(=O)(=O)c4cccc5nsnc45)C3)CC2)c1C (stereo not given) | inactive: 67%
44 | O=C1CC(c2ccccc2)Cc2[nH]c(=O)c(C(=O)Nc3ccc(OC(F)(F)F)cc3)cc21 (stereo not given) | inactive: 139%
45 | CCn1c(=O)c2sccc2n2c(CCCC(=O)N3CCN(c4ccc(OC)cc4)CC3)nnc12 | inactive: 96%
46 | COc1cccc(N2C(=O)C(CC(=O)Nc3ccc(Cl)cc3)N(Cc3ccc4c(c3)OCO4)C2=O)c1 (stereo not given) | inactive: 53%
47 | CCc1cccc(NC(=O)c2nnn(Cc3ccc(SC)cc3)c2N)c1 | inactive: 83%
48 | COc1ccc(N2CCN(C(=O)c3c(C)oc4ncnc(N5CCCCC5)c34)CC2)cc1 | inactive: 123%
49 | CCOCCCNC(=O)C(c1ccccc1)N(Cc1cccs1)C(=O)c1ccc(NC(C)=O)cc1 (stereo not given) | inactive: 94%
50 | COCCn1c(CCC(=O)Nc2cc(C)ccc2C)nc2cccnc21 | inactive: 127%
51 | Cc1cccc(-c2noc(CCCC(=O)NCc3ccco3)n2)c1 | inactive: 84%
52 | O=C(Nc1ccc(Br)cc1)C1CCCN(S(=O)(=O)c2ccc(Br)s2)C1 (stereo not given) | inactive: 85%
53 | O=c1[nH]c2ccc(NCc3ccc(-c4cccc(Cl)c4)o3)cc2[nH]1 | inactive: 88%
54 | CCOc1ccc(S(=O)(=O)N2CCN(c3cc(Cl)ccc3Cl)CC2)c2ccccc12 | inactive: 79%
55 | Cn1c(=O)c2c(SCC(=O)N3CCc4ccccc43)nc(-c3cccc(F)c3)nc2n(C)c1=O | inactive: 146%

Source: PubChem BioAssay AID463173 (ICCB-Longwood Screening Facility, Harvard Medical School, 2010)
